Measured values reported in patent US12064407B2 (priority 2017, dated 2024).

System: ERVK Env
Format: cell-based, human

## TNFα
  Env protein expression in SVGA cells: not induced

## LIGHT: lymphotoxin-like inducible member of the TNF superfamily protein, pro-inflammatory cytokine
  Env protein expression in SVGA cells: not induced
